Results published in the supplement of paper PMC10037445.
Whole data set: some 2,900 compounds, median “IRF Lucia reporter activity, fold change vs agonist alone” near 0.9, cut for the highest 2% near 2.8. The list shows a part of the results.

Assays:
[1] = tested on: RAW-Dual; assay: IRF Lucia reporter activity, fold change vs agonist alone; cytotoxicity flag (confluency mask): not cytotoxic; higher = enhanced IRF activity
Outline: (§1)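 Library stock was pin-tooled at 50 nL into 384-well plates of RAW-Dual macrophages (50,000 cells/well, DMEM), followed 1 h later by a PRR agonist, and the cells were kept at 37 °C, 5% CO2. Supernatant collected after 20 hours was read for IRF by QuantiLuc luminescence and for NF-κB by QuantiBlue absorbance at 620 nm. Reporter activity is fold change over agonist-alone wells, and a well counted as cytotoxic when its IncuCyte confluency was below 70% of agonist controls in both mask sets.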

[2] = tested on: RAW-Dual; assay: IRF Lucia reporter activity, fold change vs agonist alone; higher = enhanced IRF activity; details: agonist: MPLA (TLR4) […]
Outline: as §1

[3] = tested on: RAW-Dual; assay: IRF Lucia reporter activity, fold change vs agonist alone; cytotoxicity flag (confluency mask): cytotoxic (confluency <70% of control); higher = enhanced IRF activity
Outline: as §1

[4] = agonist: 3'3'-cGAMP (STING) 10 ug/mL
[5] = library stock concentration (final ~1000-fold dilution): 10 mM, cytotoxicity flag (confluency mask): not cytotoxic
[6] = library stock concentration (final ~1000-fold dilution): 10 mM water, cytotoxicity flag (confluency mask): not cytotoxic

Compound: O=C(NCCN1CCOCC1)Nc1nc2ccc(Sc3nnc4ccc(-c5ccc(F)cc5)nn34)cc2s1 (library stock concentration (final ~1000-fold dilution): 10 mM)
- IRF Lucia reporter activity [1, 4]: 1.09
- IRF Lucia reporter activity ([1]; agonist: LPS (TLR4) 0.1 ug/mL): 1.23

Compound: O=C(NCCN1CCOCC1)Nc1nc2ccc(Sc3nnc4ccc(-c5ccc(F)cc5)nn34)cc2s1
- IRF Lucia reporter activity [2, 5]: 0.994

Compound: CC1(C)SC2CC(=O)N2C1C(=O)OCOC(=O)C1N2C(=O)C(NC(=O)C(N)c3ccccc3)C2S(=O)(=O)C1(C)C.Cc1ccc(S(=O)(=O)O)cc1 (centres undefined) (library stock concentration (final ~1000-fold dilution): 10 mM)
- IRF Lucia reporter activity [1, 4]: 1
- IRF Lucia reporter activity ([1]; agonist: LPS (TLR4) 0.1 ug/mL): 0.905

Compound: CC1(C)SC2CC(=O)N2C1C(=O)OCOC(=O)C1N2C(=O)C(NC(=O)C(N)c3ccccc3)C2S(=O)(=O)C1(C)C.Cc1ccc(S(=O)(=O)O)cc1 (centres undefined)
- IRF Lucia reporter activity [2, 5]: 0.995

Compound: COc1cc2c3cc1Oc1c(OC)c(OC)cc4c1C(Cc1ccc(O)c(c1)Oc1ccc(cc1)CC3N(C)CC2)N(C)CC4.Cl.Cl (centres undefined)
- IRF Lucia reporter activity [2, 5]: 1.26

Compound: COc1cc2c3cc1Oc1c(OC)c(OC)cc4c1C(Cc1ccc(O)c(c1)Oc1ccc(cc1)CC3N(C)CC2)N(C)CC4.Cl.Cl (centres undefined) (library stock concentration (final ~1000-fold dilution): 10 mM)
- IRF Lucia reporter activity [1, 4]: 0.764
- IRF Lucia reporter activity ([1]; agonist: LPS (TLR4) 0.1 ug/mL): 0.916

Compound: Nc1ccn(C2OC(CO)C(O)C2O)c(=O)n1 (centres undefined)
- IRF Lucia reporter activity [2, 6]: 1.3

Compound: Nc1ccn(C2OC(CO)C(O)C2O)c(=O)n1 (centres undefined) (library stock concentration (final ~1000-fold dilution): 10 mM water)
- IRF Lucia reporter activity [1, 4]: 0.909
- IRF Lucia reporter activity ([1]; agonist: LPS (TLR4) 0.1 ug/mL): 0.832

Compound: COc1ccc2cc1Oc1ccc(cc1)CC1c3cc(c(OC)cc3CCN1C)Oc1c(O)c(OC)cc3c1C(C2)N(C)CC3 (centres undefined) (library stock concentration (final ~1000-fold dilution): 10 mM)
- IRF Lucia reporter activity [3, 4]: 1.21
- IRF Lucia reporter activity ([3]; agonist: LPS (TLR4) 0.1 ug/mL): 1.55

Compound: COc1ccc2cc1Oc1ccc(cc1)CC1c3cc(c(OC)cc3CCN1C)Oc1c(O)c(OC)cc3c1C(C2)N(C)CC3 (centres undefined)
- IRF Lucia reporter activity ([2]; library stock concentration (final ~1000-fold dilution): 10 mM, cytotoxicity flag (confluency mask): cytotoxic (confluency <70% of control)): 2.82

Compound: Cn1cc(-c2[nH]c3cc(NC(=O)C(N)C4CCCCC4)cc4c3c2C=NNC4=O)cn1 (centres undefined)
- IRF Lucia reporter activity [2, 5]: 0.374

Compound: Cn1cc(-c2[nH]c3cc(NC(=O)C(N)C4CCCCC4)cc4c3c2C=NNC4=O)cn1 (centres undefined) (library stock concentration (final ~1000-fold dilution): 10 mM)
- IRF Lucia reporter activity [1, 4]: 0.209
- IRF Lucia reporter activity ([1]; agonist: LPS (TLR4) 0.1 ug/mL): 0.213

Compound: CC(C=CC1=C(C)CCCC1(C)C)=CC=CC(C)=CC(=O)O (library stock concentration (final ~1000-fold dilution): 1 mM)
- IRF Lucia reporter activity [1, 4]: 0.568
- IRF Lucia reporter activity ([1]; agonist: LPS (TLR4) 0.1 ug/mL): 0.167

Compound: O=C(O)c1ccnc(C(=O)O)c1 (library stock concentration (final ~1000-fold dilution): 10 mM)
- IRF Lucia reporter activity [1, 4]: 1.04
- IRF Lucia reporter activity ([1]; agonist: LPS (TLR4) 0.1 ug/mL): 1.03

Compound: O=C(O)c1ccnc(C(=O)O)c1
- IRF Lucia reporter activity [2, 5]: 1.01

Compound: CC(=O)NC(CC(=O)O)C(=O)NC(CCC(=O)O)C(=O)NC(C(=O)NC(C=O)CC(=O)O)C(C)C (centres undefined) (library stock concentration (final ~1000-fold dilution): 10 mM water)
- IRF Lucia reporter activity [1, 4]: 1.37
- IRF Lucia reporter activity ([1]; agonist: LPS (TLR4) 0.1 ug/mL): 0.992

Compound: Cl.Clc1ccccc1CN1CCc2sccc2C1 (library stock concentration (final ~1000-fold dilution): 10 mM water)
- IRF Lucia reporter activity [1, 4]: 1.07
- IRF Lucia reporter activity ([1]; agonist: LPS (TLR4) 0.1 ug/mL): 0.892

Compound: Cl.Clc1ccccc1CN1CCc2sccc2C1
- IRF Lucia reporter activity [2, 6]: 1.32

Compound: CN(CCCCCCCCCCN(C)C(=O)Oc1cccc([N+](C)(C)C)c1)C(=O)Oc1cccc([N+](C)(C)C)c1 (library stock concentration (final ~1000-fold dilution): 10 mM)
- IRF Lucia reporter activity [1, 4]: 1.12
- IRF Lucia reporter activity ([1]; agonist: LPS (TLR4) 0.1 ug/mL): 0.993

Compound: CCCc1cc(C)[nH]c(=O)c1CNC(=O)c1cc(-c2ccnc(N3CCN(C)CC3)c2)cc2c1cnn2C(C)C (library stock concentration (final ~1000-fold dilution): 2 mM)
- IRF Lucia reporter activity [1, 4]: 1
- IRF Lucia reporter activity ([1]; agonist: LPS (TLR4) 0.1 ug/mL): 0.994

Compound: CCCc1cc(C)[nH]c(=O)c1CNC(=O)c1cc(-c2ccnc(N3CCN(C)CC3)c2)cc2c1cnn2C(C)C
- IRF Lucia reporter activity ([2]; library stock concentration (final ~1000-fold dilution): 2 mM, cytotoxicity flag (confluency mask): not cytotoxic): 1.54

Compound: Cc1c(C(=O)Nc2ccc(N3CC(C)OC(C)C3)nc2)cccc1-c1ccc(OC(F)(F)F)cc1 (centres undefined) (library stock concentration (final ~1000-fold dilution): 10 mM)
- IRF Lucia reporter activity [1, 4]: 0.587
- IRF Lucia reporter activity ([1]; agonist: LPS (TLR4) 0.1 ug/mL): 0.873

Compound: Cc1c(C(=O)Nc2ccc(N3CC(C)OC(C)C3)nc2)cccc1-c1ccc(OC(F)(F)F)cc1 (centres undefined)
- IRF Lucia reporter activity [2, 5]: 1.51

Compound: CNC(C)C(=O)NC(C(=O)N1CCCC1C(=O)NC1c2ccccc2CC1OCC#CC#CCOC1Cc2ccccc2C1NC(=O)C1CCCN1C(=O)C(NC(=O)C(C)NC)C1CCCCC1)C1CCCCC1 (centres undefined)
- IRF Lucia reporter activity ([2]; library stock concentration (final ~1000-fold dilution): 10 mM water, cytotoxicity flag (confluency mask): cytotoxic (confluency <70% of control)): 1.09

Compound: CNC(C)C(=O)NC(C(=O)N1CCCC1C(=O)NC1c2ccccc2CC1OCC#CC#CCOC1Cc2ccccc2C1NC(=O)C1CCCN1C(=O)C(NC(=O)C(C)NC)C1CCCCC1)C1CCCCC1 (centres undefined) (library stock concentration (final ~1000-fold dilution): 10 mM water)
- IRF Lucia reporter activity [3, 4]: 0.647
- IRF Lucia reporter activity ([3]; agonist: LPS (TLR4) 0.1 ug/mL): 0.243
